Data from PubChem BioAssay AID1030 (National Center for Advancing Translational Sciences (NCATS), 2008).
Several values for one entry are separate records, joined by “and”; a condition that tells them apart may be missing. Equal entries are not always repeated. The whole screen tested about 220,000 compounds, of which about 16,000 (7.3%) were called active. Inconclusive means that the source gave no clear call. Such entries were picked first, then a sample of the others. The call rests on the fitted dose curve; in most records, active means well fitted inhibition curve with a large enough effect (not every such curve was filed as active); inconclusive means small, poorly fitted or top-dose-only effect, or another doubt; inactive means no such curve, though single readings can be large or run the other way. No potency is given beside an inconclusive call; the fits are too rough. Where a structure was tested more than once in an assay, its records may differ in their call.

biological target: Aldehyde dehydrogenase 1A1 (Homo sapiens) (UniProt P00352); experiment: qHTS Assay for Inhibitors of Aldehyde Dehydrogenase 1 (ALDH1A1); settings: Purified ALDH1A1, NADH fluorescence, propionaldehyde substrate; series mostly up to 75.3 µM;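 on activity, negative = inhibition: plate controls were no enzyme wells and a reference inhibitor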
UniProt P00352, sequence (P00352 whole entry, looked up): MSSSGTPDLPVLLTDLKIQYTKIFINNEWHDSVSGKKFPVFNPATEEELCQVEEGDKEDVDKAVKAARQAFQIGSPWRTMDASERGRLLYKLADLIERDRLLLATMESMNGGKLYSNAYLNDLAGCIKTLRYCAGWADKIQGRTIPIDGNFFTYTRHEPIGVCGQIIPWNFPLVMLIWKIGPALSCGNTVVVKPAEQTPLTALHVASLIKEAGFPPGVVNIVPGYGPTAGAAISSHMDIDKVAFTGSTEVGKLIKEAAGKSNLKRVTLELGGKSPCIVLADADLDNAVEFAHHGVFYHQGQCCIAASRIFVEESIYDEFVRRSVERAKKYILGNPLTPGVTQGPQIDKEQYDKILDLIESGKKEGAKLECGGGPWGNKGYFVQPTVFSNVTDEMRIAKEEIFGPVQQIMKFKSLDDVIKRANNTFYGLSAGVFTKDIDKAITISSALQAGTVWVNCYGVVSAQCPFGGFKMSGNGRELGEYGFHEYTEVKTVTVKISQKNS
Potency means the concentration at half of the fitted maximal effect; tags describe the fitted curve by direction and shape.

SMILES	Potency	activity, negative = inhibition
CCN=C1S/C(=C\c2ccc(O)c(OCC)c2)C(=O)N1CC	inconclusive [inhibitor, single point]	
CC1=CC(=O)C2C(C)(C)CCC[C@@]2(C)[C@@]1(O)CCc1ccoc1 (stereo partly drawn)	inconclusive [inhibitor, partial curve]	
COc1ccc2nc(NC(=O)C3CCCN(S(=O)(=O)c4cccs4)C3)sc2c1 (stereo not drawn)	inconclusive [inhibitor, partial curve]	
CC(=O)Nc1ccc(-c2csc(NCc3ccco3)n2)cc1	inconclusive [inhibitor, single point]	
COC(=O)c1ccc(/C=N/Nc2nc(-c3ccccc3)cs2)cc1	inconclusive [inhibitor, single point]	
CCc1ccc(CNCc2cccnc2)cc1	inconclusive [inhibitor, single point]	
O=c1cc(CCl)nc2scc(-c3ccccc3)n12	inconclusive [inhibitor, single point]	
COc1ccc(C(=S)N2CCCCCC2)cc1	inconclusive [inhibitor, single point]	
COc1cccc(CN(Cc2cccnc2)S(=O)(=O)c2ccc(-n3cnnn3)c(C)c2)c1OC	inconclusive [inhibitor, partial curve, poor fit]	
CC(C(=O)O)N1C(=O)CSc2ncccc21 (stereo not drawn)	inactive	
CN(C)/C=C/C(=O)c1ccc(Oc2ncccn2)cc1	inactive	
Cc1cccc(-n2ncc3c(N4CCOCC4)ncnc32)c1	inconclusive [inhibitor, single point]	
CN(C)C(=O)C(=O)c1cccn1-c1cccc(Cl)c1C#N	inactive	
COc1ccc(CN2CCn3ncc(C(=O)Nc4ccc(Cl)cc4Cl)c3C2=O)cc1	inconclusive [inhibitor, partial curve]	
CCOC(=O)N1CCN(C(=O)CSc2nnc(Cc3cccn3C)n2CCc2ccccc2)CC1	inconclusive [inhibitor, partial curve]	
COc1ccc(NC(=O)Nc2ccccc2F)c([N+](=O)[O-])c1	inactive	
CCOC(=O)COc1c(Br)cc(/C=C2\SC(=O)N(CC(=O)N3CCCC3)C2=O)cc1OC	active: 22.4 µM	
Nc1nc(-c2ccco2)nc(N2CCCCC2)n1	inconclusive [inhibitor, single point]	
Nc1cc(C(=O)O)c(Oc2ccc(Cl)cc2Cl)cc1C(=O)O	inconclusive [inhibitor, partial curve]	
O=C(c1cc([N+](=O)[O-])ccc1N1CCOCC1)N1CCCCC1	inactive	
COc1cc(OC)cc(C(=O)NC(=S)NCc2ccco2)c1	inconclusive [inhibitor, single point]	
C[C@@H]1/C=C\CC(=O)OC[C@H](C)C(=O)N[C@@H](Cc2ccccc2)C(=O)OC1		inactive: 6.58% [at 13.5 µM]
COc1ccc(-c2nc3cnc(Oc4ccccc4)nc3n(Cc3cccs3)c2=O)cc1	inconclusive [inhibitor, full curve]	
CC(C)Cn1c(N)c(C(=O)NCC2CCCO2)c2nc3ccccc3nc21 (stereo not drawn)	inconclusive [inhibitor, partial curve]	
Cc1sc(-c2ccncc2)nc1OC(=O)c1ccc(F)cc1F	inactive	

SMILES	Potency	activity, negative = inhibition
CCOC(=O)CC(=O)CSc1nc2c(cc1C#N)CCC2	inconclusive [inhibitor, single point]	
O=c1c2ccccc2sn1-c1cc(S(=O)(=O)N2CCOCC2)ccc1N1CCCC1	active: 0.0224 µM	
CCC(CCC(C)C1CCC2C3CC=C4CC(OC(C)=O)CC[C@@]4(C)C3CC[C@@]12C)C(C)C (stereo partly drawn)	inactive	
Clc1ccc(N2COC3c4cccc5cccc(c45)C32)cc1 (stereo not drawn)	inactive	
CCC(C)[C@H](NC(=O)NCc1ccco1)C(=O)OC (stereo partly drawn)	active: 12.6 µM	
O=C1C2C3C=CC(CC3)C2C(=O)N1/N=C/c1c(O)ccc2ccccc12 (stereo not drawn)	inconclusive [inhibitor, full curve, poor fit]	
CC1CCCCN1Cc1ccc(N(C)C)cc1 (stereo not drawn)	inconclusive [inhibitor, partial curve]	
c1ccc(/C(=N/Nc2nc3ccccc3s2)c2ccccn2)cc1	inconclusive [inhibitor, single point]	
CC(=O)Nc1ccc(N2C(=O)CSC2c2ccccc2[N+](=O)[O-])cc1 (stereo not drawn)	inactive	
CCCNC(=O)C/C(C)=N/NC(=O)C(=O)Nc1ccccn1	inactive	
CO[C@@H]1COC(=O)[C@H]2CCCN2C(=O)[C@@H](C)COC(=O)CCC[C@H]1C		inactive: 9.93% [at 13.5 µM]
O=c1cc(-c2ccccc2)nc2nc(CCc3ccccc3)[nH]n12	inactive	
Cc1ccc(N(CCC(=O)O)S(=O)(=O)c2ccccc2)cc1	inactive	
O=C(/C=C/c1ccco1)Nc1ccc(Oc2ccccc2)cc1	inactive	
O=C(O)c1ccc(COc2ccc3c4c(c(=O)oc3c2)CCC4)o1	inconclusive [inhibitor, single point]	
COC(=O)C1=C(C)NC(=O)CC1c1ccccc1OC (stereo not drawn)	inactive	
COc1ccc2[nH]cc(C(=O)CN3CCN(C(=O)c4ccco4)CC3)c2c1	inconclusive [inhibitor, single point]	
O=C(CCl)Nc1ccc(-c2ccccc2)cc1	active: 0.251 µM	
COC(=O)[C@H](C)[C@H]1C[C@]1(C)[C@H](NC(=O)OCc1ccccc1)c1ccccc1	inactive and active: 22.4 µM	
CC(C)NC1=C(Cl)C(=O)c2ccccc2C1=O	inconclusive [inhibitor, single point]	
Cn1c(CN2CCC(C(N)=O)CC2)c(C#N)c2ccccc21	inconclusive [inhibitor, single point]	
O=C(Nc1ccc([N+](=O)[O-])c(NC(=O)C2CCCO2)c1)C1CCCO1 (stereo not drawn)	inconclusive [inhibitor, single point]	
CCCCCCN	inactive	
O=C(Nc1ccc(C(F)(F)F)cc1)c1cnc(N2CCN(c3ccccn3)CC2)c2ccccc12	inactive	
Nc1nc(SCC(=O)Nc2cc(-c3ccccc3)nn2-c2ccccc2)n[nH]1	active: 10 µM	

SMILES	Potency	activity, negative = inhibition
O=C(/C=C/c1ccc(F)cc1)NCc1ccco1	inactive	
COc1ccccc1N1CCN(S(=O)(=O)c2ccccc2F)CC1	inconclusive [inhibitor, single point]	
Cc1cc(-c2[nH]nc3c2C(c2cccc(O)c2)C(C#N)=C(N)O3)c(C)s1 (stereo not drawn)	inconclusive [inhibitor, single point]	
CCn1c(O)c(N=NC(=O)c2cccc(S(=O)(=O)N3CCCCC3)c2)c2ccccc21	inactive	
N#CCCn1c(=O)c(-c2cccs2)nc2cnc(N3CCOCC3)nc21	inconclusive [inhibitor, single point]	
CCc1cc(=O)oc2cc3occ(C)c3cc12	inconclusive [inhibitor, full curve]	
O=C(Nc1cccc(F)c1)c1cc(S(=O)(=O)NCCC2=CCCCC2)ccc1F	inconclusive [inhibitor, single point]	
Cc1nnc(NC(=O)c2csc3c2CCC(C)C3)s1 (stereo not drawn)	inconclusive [inhibitor, partial curve]	
O=C(c1cc2ccccc2oc1=O)N(Cc1ccccc1)Cc1ccc2c(c1)OCO2	inconclusive [inhibitor, partial curve]	
O=C(O)CC1(CC(=O)Nc2ccc(Br)cc2)CCCCC1	inactive	
COc1ccc(Oc2ncc3nc(-c4cc(F)cc(F)c4)c(=O)n(CCC#N)c3n2)cc1	inconclusive [inhibitor, single point]	
CCN(CC)CCn1c(-c2ccccc2)nc2c(NCCO)nc(C)nc21	inconclusive [inhibitor, partial curve]	
Cc1cc(NC(=O)CSc2ccc(F)cc2)no1	inactive	
O=C(O)c1cccc(-n2cccc2/C=C2\SC(=O)N(Cc3ccccc3F)C2=O)c1	inconclusive [inhibitor, single point]	
CCN(CC)S(=O)(=O)c1ccc(O)c(C(=O)OCC(=O)Nc2ccc(OC(F)(F)F)cc2)c1	inconclusive [inhibitor, single point]	
Clc1ccc(-n2nnnc2-c2cnc3ccccc3c2-c2ccccc2)cc1	inconclusive [inhibitor, single point]	
[O-][n+]1c2c(nc3c1-c1ccccc1C3O)CCCC2 (stereo not drawn)	inconclusive [inhibitor, single point]	
O=C(O)[C@@H]1[C@@H](C(=O)Nc2ccccc2)[C@@H]2C=C[C@@H]1O2		inactive: -1.67% [at 13.5 µM]
CCOc1ccc(Nc2nc(Cc3nnc(SCC(=O)N(CC)CC)n3C)cs2)cc1	inconclusive [inhibitor, single point]	
COc1ccc(OC)c(CN(CCN2CCOCC2)C(=O)Nc2ccccc2)c1	inactive	
COc1ccccc1N1CCN(C(=O)CSc2nc(C)c(C)c(=O)[nH]2)CC1	inconclusive [inhibitor, partial curve]	
Cc1c(N=C2NC(=O)/C(=C/c3ccc(O)cc3)S2)c(=O)n(-c2ccccc2)n1C	inactive	
CCCCCn1c(=O)c(F)cn(Cc2ccc(OC)c([N+](=O)[O-])c2)c1=O	inconclusive [inhibitor, single point]	
